In all, about 45,000 compounds went through this assay and about 65 (0.1%) were called active. The call rests on the fitted dose curve; in most records, active means well fitted activation curve with a large enough effect; inconclusive means small, poorly fitted or top-dose-only effect; inactive means no such curve, though single readings can be large or run the other way. The list shows a part of the results.
The compounds below were run against Galactocerebrosidase (Homo sapiens) (UniProt P54803) (assay: A Novel Cell-Based Assay to Identify Small Molecules for B -Galactocerebrosidase). Conditions: 145M-Twi-hGALC-G270D cells (Twitcher mouse brain line with human GALC G270D), HMU-beta-Gal fluorescence, 48 h; series mostly up to 57.5 µM; activation: at the top concentration.
Summary of the method: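 Live 145M-Twi cells (Twitcher mouse brain-derived, GALC-null) stably expressing human GALC-G270D, with a wild-type GALC line, were compound-treated. Residual GALC activity was then read as fluorescence from 0.1 mM final HMU-β-gal at pH 5.2; higher signal means activation.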
Further: 0% is about no effect; nearly all actives have a fitted effect of over 65% in size.

Chain of UniProt P54803 (P54803 whole entry, looked up): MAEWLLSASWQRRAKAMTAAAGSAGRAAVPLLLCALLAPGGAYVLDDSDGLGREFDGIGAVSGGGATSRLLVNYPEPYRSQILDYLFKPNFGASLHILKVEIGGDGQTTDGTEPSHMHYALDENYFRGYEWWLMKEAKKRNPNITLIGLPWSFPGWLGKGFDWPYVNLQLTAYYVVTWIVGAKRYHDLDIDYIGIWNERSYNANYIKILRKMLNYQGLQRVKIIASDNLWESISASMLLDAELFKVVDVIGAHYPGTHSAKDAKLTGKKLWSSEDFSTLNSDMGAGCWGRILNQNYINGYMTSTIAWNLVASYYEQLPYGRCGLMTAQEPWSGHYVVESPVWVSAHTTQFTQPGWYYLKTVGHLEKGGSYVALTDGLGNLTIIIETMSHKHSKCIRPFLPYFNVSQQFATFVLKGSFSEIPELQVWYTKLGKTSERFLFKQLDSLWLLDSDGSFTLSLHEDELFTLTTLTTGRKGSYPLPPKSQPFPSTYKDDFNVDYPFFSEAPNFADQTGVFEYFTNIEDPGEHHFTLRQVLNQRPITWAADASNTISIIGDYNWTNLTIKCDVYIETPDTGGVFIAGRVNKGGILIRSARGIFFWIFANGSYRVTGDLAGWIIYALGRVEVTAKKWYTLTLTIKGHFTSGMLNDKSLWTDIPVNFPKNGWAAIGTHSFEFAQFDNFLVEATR

activation, inactive:
Fc1ccc(N2CCN(Cc3cccn3-c3nnc(N4CCN(C5CCCCC5)CC4)s3)CC2)cc1 -21%
CCOC(=O)c1cc(-c2ccccc2)n(-c2cccc(C(=O)N(C)c3ccc(C)cc3)c2)c1C -13.9%
CCc1ccccc1NC(=O)c1cc2c(Cl)nc3ccccc3c2s1 -13.7%
Cc1ccc(NC(=O)C2CCCN(c3cnccn3)C2)c(C)c1 (stereo unspecified) -10.8%
CCCSc1nc2sc3c(c2c(=O)n1-c1cccc(Br)c1)CC(C)(C)OC3 -5.57%
Cc1ccccc1Cn1c(SCc2ccc(C(=O)NC3CCCC3)cc2)nc2ccncc21 -12.4%
CC(=O)Nc1ccc(Nc2ncnc3c2c(-c2ccccc2)cn3-c2ccc(C)c(Cl)c2)cc1 -8.83%
CCOC(=O)c1c(C)[nH]c(C)c1S(=O)(=O)N1CCC(C(=O)Nc2ccc(C)c(Cl)c2)CC1 -9.4%
Cc1cccc(C)c1NC(=O)CCS(=O)(=O)c1cccc2nonc12 -11.4%
Cc1c(NC(=O)c2ccc(Br)o2)cccc1-c1nc2ccccc2o1 -16.4%
CCCOc1cccc(C(=O)Nc2ccc(-c3cc4ccccc4oc3=O)c(C)c2)c1 -11.6%
CCOC(=O)c1ccc(NC2=CC(c3ccc(F)cc3)N(c3ccc(C(=O)OCC)cc3)C2=O)cc1 (stereo unspecified) -12%
CCOc1ccccc1NC(=O)c1cc2c(=O)n(Cc3cccnc3)ccc2nc1C -21.3%
COc1ccc(NC(=O)N2CCN3CCCCC3C2)cc1OC (stereo unspecified) -9.88%
COc1cc(C2NC(=O)c3c(sc4c3CCN(C)C4)N2)ccc1OC(=O)c1ccccc1 (stereo unspecified) -13.8%
COc1ccccc1N=c1scc(-c2ccc(S(=O)(=O)N3CCCC3)cc2)n1C -11.3%
COc1cccc(NC(=O)N2CCN(C(=O)c3nsc4ccccc34)CC2)c1 -3.21%
Cc1nc2c(c(C)nn2-c2ccccc2)c(C)c1CCC(=O)NCCc1ccc(Cl)cc1 -8.04%
COc1ccccc1CNC(=O)CCNS(=O)(=O)c1cccc2nsnc12 3.79%
Cc1cccc(Cn2cccc2CNS(=O)(=O)c2ccc(C)c(C)c2)c1 -10.7%
CN1CCSc2ccc(C(=O)NCc3ccccc3)cc21 -10.7%
CCCCN(Cc1ccco1)C(=O)Cn1ncc2c([nH]c3ccccc32)c1=O -11%
O=C(c1ccco1)n1nc(-c2ccc(Cl)cc2)nc1NCc1ccc(F)cc1 2.3%
COc1ccc(CC(=O)NCc2ccc3c(c2)CCN3C(=O)c2cccc(C)c2)cc1 -20.6%
Cc1ccc(-n2cnc3cc(C(=O)NCc4ccccc4Cl)ccc32)c(C)c1 -42.2%
O=C(O)C(Cc1cc(I)c(O)c(I)c1)c1ccccc1 (stereo unspecified) 1.89%
CCCOc1cccc(C2c3c(oc4ccc(F)cc4c3=O)C(=O)N2Cc2ccc3c(c2)OCO3)c1 (stereo unspecified) -1.85%
Cc1nc(-n2nc(C)c(Cc3ccc4c(c3)OCO4)c2C)sc1C(=O)Nc1ccc(Cl)cc1 -5.87%
O=C(Nc1ccc2nc(SCCOc3ccccc3)sc2c1)c1ccc2c(c1)OCO2 -18.9%
Clc1ccccc1Nc1ncnc2c1nc1n2CCCCC1 -5.74%
CCOCCCNc1nc2cc(OC)c(OC)cc2c2nc(-c3ccccc3)nn12 -20.1%
COc1ccc(C2C(C(=O)Nc3ccccc3)=C(C)Nc3nc(-c4ccccc4Cl)nn32)cc1OC (stereo unspecified) -14.2%
Cc1ccc(NC(=O)Cn2c(=O)n(CCC(=O)NCc3ccccc3Cl)c(=O)c3ccccc32)c(C)c1 4.06%
Cc1cccc(NS(=O)(=O)c2ccc3nc(-c4ccccc4)[nH]c3c2)c1C -0.896%
CCOC(=O)c1scc(-c2ccc(C)cc2)c1S(=O)(=O)Nc1ccc(OC)c(Cl)c1 -16.1%
Cc1nc2cc(-c3ccccc3)nn2c(C)c1CCC(=O)NCc1cccc(Cl)c1 -8.73%
Cc1ccc(CNC(=O)CN(c2cc(C)cc(C)c2)S(=O)(=O)c2c(C)noc2C)cc1 -11.4%
COc1cc2[nH]c(=O)n(CCCCCC(=O)N3CCN(c4ccc(Cl)cc4)CC3)c(=O)c2cc1OC -11.3%
O=C(CSc1cn(CC(=O)N2CCCC2)c2ccccc12)Nc1ccccc1C(F)(F)F 5.62%
Cc1cccc(Cn2c(=O)n(CC3CCC(C(=O)N4CCC(C)CC4)CC3)c(=O)c3sccc32)c1 (stereo unspecified) -10.2%
Cc1nc2ccn(Cc3cccs3)c(=O)c2cc1C(=O)N1CCN(c2ccccc2)CC1 -14.8%
CCOC(=O)Cc1ccc(NC(=O)N2CC(C)Oc3ccc(Cl)cc32)cc1 (stereo unspecified) -7.8%
COc1cc2nc(NCc3ccccc3)n3nc(-c4ccccc4)nc3c2cc1OC -16.9%
COC(=O)c1ccccc1NC(=O)c1ccc2c(Cl)c3c(nc2c1)CCCC3 -14.9%
O=C(Nc1cccc(Br)c1)c1cc(-c2ccc3c(c2)OCCO3)on1 4.87%
COc1ccc(-n2c(=O)c3ccc(C(=O)NCc4ccc(C)cc4)cc3n(Cc3ccc(C)cc3)c2=O)cc1 -15.8%
Cc1ccccc1CNCCSc1nnnn1-c1ccccc1 -8.11%
Cc1ccc(-n2c(=O)c3ccc(C(=O)NCc4ccco4)cc3n(Cc3ccc(Cl)cc3)c2=O)cc1 -17.2%
CCOC(=O)N1CCN(Cc2nc3cc(NC(=O)c4ccccc4OC)ccc3n2C(C)C)CC1 -13.6%
Cc1ccc2c(c1)N(S(=O)(=O)c1ccc3c(c1)NC(=O)CC(=O)N3)CCO2 -17.3%
Cc1ccc2c(c1)N(CC(=O)NCCCN1CCCCC1C)C(=O)c1cccnc1O2 (stereo unspecified) -9.75%
Cc1ccc(-n2nc3c(=O)n(CC(=O)NCc4ccco4)nc(C)c3c2C)cc1 -22.8%
COc1ccc(CNC(=O)c2nc(S(=O)(=O)Cc3ccccc3)ncc2Cl)cc1 -23.4%
CSc1ccc(CCNc2ncnc3onc(-c4ccc(Cl)cc4)c23)cc1 -26.1%
Cc1cc(C)c2sc(N3CCN(C(=O)C4CC4)CC3)nc2c1 -2.33%
Cc1nc2nc(SCC(=O)N(Cc3ccccc3)C(C)C)nn2c(C)c1Cc1ccccc1Cl -12.7%
COc1ccc(C(=O)c2sc(Nc3cc(Cl)ccc3C)nc2N)cc1OC -5.9%
COC(=O)c1cc2occc2n1Cc1nc(-c2cccc(Br)c2)oc1C -14.7%
CCc1ccc2ncc3c(-c4ccc(C)cc4)nn(CC(=O)Nc4ccc(C)cc4)c3c2c1 -19.3%
COc1ccc(Oc2nc3c(C)cccn3c(=O)c2/C=C(\C#N)c2nc3ccccc3[nH]2)cc1 -11.5%
Cc1cc(C)c(NC(=O)Cn2c(=O)n(-c3ccc(F)cc3)c(=O)c3c(C)c(C(=O)N(C)C)sc32)c(C)c1 -0.607%
COc1ccc(-n2c(=O)c3c4c(sc3n(Cc3cc(=O)n5c(C)cccc5n3)c2=O)CCC4)c(OC)c1 -21.8%
Cc1ccc(NC(=O)c2ccco2)c(OCc2cc(=O)n3cc(C)sc3n2)c1 -2.67%
CC(C)(Cc1c[nH]c2ccccc12)NCC(O)COc1ccccc1C#N (stereo unspecified) -8.41%
CCC1CN(C(=O)NCc2ccc(F)cc2)c2ccccc2O1 (stereo unspecified) -7.17%
COc1ccc(NC(=O)CCCS(=O)(=O)c2nc(-c3ccc(OC)c(OC)c3)cc(C(F)(F)F)n2)cc1OC -19%
Cc1ccc(OCC(=O)Nc2ccc3nc(SCC(=O)N4CCCC4)sc3c2)cc1C -15.7%
CCc1ccc(CNC(=O)CSCc2cnn(-c3ccccc3)c2-n2cccc2)cc1 -10.4%
Cc1ccc(Cn2c(=O)c3ccccc3n3c(-c4ccccc4)nnc23)cc1 -16%
COc1ccc(C2CC(=O)N3CN(C4CCCCC4)CSC3=C2C#N)cc1 (stereo unspecified) -17.3%
COc1cccc(-c2nc(CS(=O)CC(=O)N3CCN(c4cccc(C(F)(F)F)c4)CC3)c(C)o2)c1 (stereo unspecified) -19.1%
Cc1ccc(SCC(=O)Nc2ccc3oc(-c4cccc(C)c4)nc3c2)cc1 -3.21%
Cc1ccc(Cl)cc1NC(=O)CCS(=O)(=O)c1ccc(Br)s1 -2.03%
O=C(Nc1ccc2c(c1)N(C1CCCC1)C(=O)c1ccccc1S2)c1ccccc1 -16.5%
O=C(NCCC1=CCCCC1)c1ccc2c(c1)N(Cc1ccccc1)C(=O)c1ccccc1S2(=O)=O -5.3%
CCOC(=O)c1noc2ncn(CC(=O)O)c(=O)c12 -9.8%
O=C(Cn1cc(SCc2ccccc2Cl)c2ccccc21)N1CCCCCC1 -27.4%
COc1ccc(OC)c(CNS(=O)(=O)c2ccc(-c3cc(C(F)(F)F)on3)s2)c1 1.02%
CCN1C(=O)CC(C(=O)Nc2ccc(OC)cc2)SC1=Nc1ccc(C)c(C)c1 (stereo unspecified) -14%
CCc1cccc(NC(=O)CCS(=O)(=O)c2ccc(C)cc2)c1 -4.07%
CCc1ccc(C2c3c(n[nH]c3C)C(=O)N2c2ccc(C)cc2)cc1 (stereo unspecified) -10.9%
CCOc1ccc(-c2ccc(CO)o2)cc1N -11%
O=C(NC1CCCC1)c1ccc2c(c1)N(Cc1ccc(F)cc1)C(=O)c1ccccc1S2 -10.8%
Cc1ccc(N2CCN(C(=O)c3nn(C)c4c3CSc3ccccc3-4)CC2C)cc1 (stereo unspecified) 1.72%
Cc1ccc(CNC(=O)CN(c2cc(C)cc(C)c2)S(=O)(=O)c2c(C)[nH]c(=O)[nH]c2=O)cc1 -13.2%
COc1ccc(-c2noc(-c3ccccc3NC(=O)c3cc(OC)c(OC)c(OC)c3)n2)cc1 -14.1%
O=S(=O)(Nc1nc2n(n1)C(c1ccccc1)C=C(c1ccc(Cl)cc1)N2)c1ccccc1 (stereo unspecified) -18.2%
COc1ccc(NC(=O)C(Cc2ccccc2)n2cccc2)c(OC)c1 (stereo unspecified) -12.4%
CC(C)CCNC(=O)CSc1nc2ccsc2c(=O)n1Cc1ccccc1Cl -5.52%
OC(CCN1CCCCC1)(c1ccccc1)c1ccccc1 -11.8%
O=C(COc1ccccc1F)Nc1nnc(S(=O)(=O)N2CCCCCC2)s1 -14.9%
CCCCNC(=O)CSc1nc2n[nH]c(C)c2c(=N)n1-c1ccccc1CC -7.72%
COc1ccc(C2CC(=O)c3c([nH]c(C(=O)OCc4ccccc4)c3C)C2)cc1OC (stereo unspecified) -13.6%
CCOc1cc(C2c3c(oc4ccc(F)cc4c3=O)C(=O)N2Cc2ccc(C)cc2)ccc1O (stereo unspecified) -20%
COc1ccc(Nc2nnc(-c3ccc(C)c(S(=O)(=O)N4CCOCC4)c3)c3ccccc23)cc1 -22.8%
O=C(NCc1ccc(Cl)cc1)C1CCCN(c2ncnc3onc(-c4ccc(F)cc4)c23)C1 (stereo unspecified) -5.25%
